Some of the results follow.
How the values were obtained:
Experiment in all cases: glycan array binding signal (z-score within array); higher = stronger binding
Conditions in all cases: glycan notation: IUPAC condensed, linker removed
[1] = molecular target: Fuc(a1-2)[Gal(a1-3)]Gal(b1-4)GlcNAc(b1-2)Man(a1-3)[Fuc(a1-2)[Gal(a1-3)]Gal(b1-4)GlcNAc(b1-2)Man(a1-6)]Man(b1-4)GlcNAc(b1-4)GlcNAc
Outline: (§1)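 Glycan array binding is given as a within-array Z-score, which can be read as non-binding when negative. The arrays, 3228 of them, came from the Consortium for Functional Glycomics database and were retained only where the protein sequence was available. Z-scores were averaged across arrays of the same protein sequence at different concentrations or buffers and across linkers.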

[2] = molecular target: Fuc(a1-2)[Gal(a1-3)]Gal(b1-4)GlcNAc(b1-2)Man(a1-3)[Fuc(a1-2)[Gal(a1-3)]Gal(b1-4)GlcNAc(b1-2)Man(a1-6)]Man(b1-4)GlcNAc(b1-4)[Fuc(a1-6)]GlcNAc
Outline: as §1

[3] = molecular target: Fuc(a1-2)[Gal(a1-3)]Gal(b1-4)GlcNAc(b1-3)GalNAc
Outline: as §1

[4] = molecular target: Fuc(a1-2)[Gal(a1-3)]Gal(b1-4)GlcNAc(b1-3)[Fuc(a1-2)[Gal(a1-3)]Gal(b1-4)GlcNAc(b1-6)]GalNAc
Outline: as §1

[5] = molecular target: Fuc(a1-2)[Gal(a1-3)]Gal(b1-4)GlcNAc(b1-6)GalNAc
Outline: as §1

[6] = molecular target: Fuc(a1-2)[Gal(a1-3)]Gal(b1-4)[Fuc(a1-3)]Glc
Outline: as §1

[7] = molecular target: Fuc(a1-2)[Gal(a1-3)]Gal(b1-4)[Fuc(a1-3)]GlcNAc
Outline: as §1

[8] = molecular target: Fuc(a1-2)[Gal(a1-3)]Gal(b1-4)[Fuc(a1-3)]GlcNAc(b1-3)GalNAc
Outline: as §1

[9] = molecular target: Fuc(a1-2)[Gal(a1-4)]Gal(b1-4)GlcNAc
Outline: as §1

[10] = molecular target: Fuc(a1-2)[GalNAc(a1-3)]Gal
Outline: as §1

[11] = molecular target: Fuc(a1-2)[GalNAc(a1-3)]Gal(b1-3)GalNAc(a1-3)[Fuc(a1-2)]Gal(b1-4)GlcNAc
Outline: as §1

[12] = molecular target: Fuc(a1-2)[GalNAc(a1-3)]Gal(b1-3)GalNAc(b1-3)Gal(a1-4)Gal(b1-4)Glc
Outline: as §1

[13] = molecular target: Fuc(a1-2)[GalNAc(a1-3)]Gal(b1-3)GlcNAc
Outline: as §1

[14] = molecular target: Fuc(a1-2)[GalNAc(a1-3)]Gal(b1-3)GlcNAc(b1-2)Man(a1-3)[Fuc(a1-2)[GalNAc(a1-3)]Gal(b1-3)GlcNAc(b1-2)Man(a1-6)]Man(b1-4)GlcNAc(b1-4)GlcNAc
Outline: as §1

[15] = molecular target: Fuc(a1-2)[GalNAc(a1-3)]Gal(b1-3)GlcNAc(b1-2)Man(a1-3)[Fuc(a1-2)[GalNAc(a1-3)]Gal(b1-3)GlcNAc(b1-2)Man(a1-6)]Man(b1-4)GlcNAc(b1-4)[Fuc(a1-6)]GlcNAc
Outline: as §1

[16] = molecular target: Fuc(a1-2)[GalNAc(a1-3)]Gal(b1-3)GlcNAc(b1-3)GalNAc
Outline: as §1

[17] = molecular target: Fuc(a1-2)[GalNAc(a1-3)]Gal(b1-3)GlcNAc(b1-6)GalNAc
Outline: as §1

[18] = molecular target: Fuc(a1-2)[GalNAc(a1-3)]Gal(b1-4)Glc
Outline: as §1

[19] = molecular target: Fuc(a1-2)[GalNAc(a1-3)]Gal(b1-4)GlcNAc
Outline: as §1

[20] = molecular target: Fuc(a1-2)[GalNAc(a1-3)]Gal(b1-4)GlcNAc(b1-2)Man
Outline: as §1

[21] = molecular target: Fuc(a1-2)[GalNAc(a1-3)]Gal(b1-4)GlcNAc(b1-2)Man(a1-3)[Fuc(a1-2)[GalNAc(a1-3)]Gal(b1-4)GlcNAc(b1-2)Man(a1-6)]Man(b1-4)GlcNAc(b1-4)GlcNAc
Outline: as §1

[22] = molecular target: Fuc(a1-2)[GalNAc(a1-3)]Gal(b1-4)GlcNAc(b1-2)Man(a1-3)[Fuc(a1-2)[GalNAc(a1-3)]Gal(b1-4)GlcNAc(b1-2)Man(a1-6)]Man(b1-4)GlcNAc(b1-4)[Fuc(a1-6)]GlcNAc
Outline: as §1

B1: rMpL (Macrolepiota procera) (protein)
chain: MSTQVSSGRTYKITNVIAGTVIDLSGEDNKSIIGYPYHSGKNQQWTFNWTGKAWTLRSASSGSYLGIEGTPAGGTRLVAVNDPFEWHIWRDEANENAFRIFVPFTNYNLDLSGYGDTTPGTPVQLWWTWEGLHQTWTIDRP
glycan array binding signal (z-score) [1]: -0.257
glycan array binding signal (z-score) [2]: -0.062
glycan array binding signal (z-score) [3]: -0.242
glycan array binding signal (z-score) [4]: -0.128
glycan array binding signal (z-score) [5]: -0.314
glycan array binding signal (z-score) [6]: -0.207
glycan array binding signal (z-score) [7]: -0.216
glycan array binding signal (z-score) [8]: -0.313
glycan array binding signal (z-score) [9]: -0.237
glycan array binding signal (z-score) [10]: -0.317
glycan array binding signal (z-score) [11]: -0.307
glycan array binding signal (z-score) [12]: -0.357
glycan array binding signal (z-score) [13]: -0.255
glycan array binding signal (z-score) [14]: -0.361
glycan array binding signal (z-score) [15]: 0.394
glycan array binding signal (z-score) [16]: -0.124
glycan array binding signal (z-score) [17]: -0.353
glycan array binding signal (z-score) [18]: -0.324
glycan array binding signal (z-score) [19]: -0.328
glycan array binding signal (z-score) [20]: -0.408
glycan array binding signal (z-score) [21]: -0.308
glycan array binding signal (z-score) [22]: -0.044
